In the RNAGym collection of RNA variant scans (doi:10.7554/elife.90254):
Read counts are not given, so values of variants with three or more changes are uncertain.

B1: LINE1-mini (parent)
chain: GGCAGAGCUCAACACAGCGUGGCAAAGUGGCUGUGGCUAGACUGCC

Variants of: B1
Assay: self-cleavage, relative activity (ratio to wild type); higher = more cleavage; in vitro, sequencing; the parent is a self-cleaving ribozyme
With GGCAGAGCUCAGCACAGCGUGGCAGAGUGGCUGUGGCUAGUCUGCC [A12G A25G A41U] the self-cleavage was 0.03. GGCUGAGCUGAACAAAGCGUGGCAAAGUGGCUGUGACUAGACUGCC [A4U C10G C15A G36A] showed a self-cleavage of 0.06. With GGCAGAGCUCAACAAAGCGUGGCAAAGUGCCUAUGGCUAGACUGCC [C15A G30C G33A] the self-cleavage was 0.05. Work on GUCAGAGCUCAACACAGCGUGGCAAACUGGCUGUGGCUAGUCUACC [G2U G27C A41U G44A] yielded a self-cleavage of 0.05. GGCAGAGCUCAACACAGCAUGGCAAAGUGGCUGUGGGUAGAUUGCC [G19A C37G C42U] showed a self-cleavage of 0.03. For GGCAGACGUCAACACAGCGUGGAAAGGUGGCUGUGGCUAGACUGCC [G7C C8G C23A A26G], the self-cleavage was 0.44. Variant GGCAGAGCUCAACAUAACGCGGCAUAGUGGCUGUGGCUAGACUGCC [C15U G17A U20C A25U] has a self-cleavage of 0.04. In the case of GGCGAAGCUCACCACAGCGUGGCAUAGUGGCUGUGGCAAGACUGCC [A4G G5A A12C A25U U38A], the self-cleavage is reported as 0.01. Work on GGCACAGCUCAACACAGCGUGGCAAAGUGGCUGUGGCUAGACUCCA [G5C G44C C46A] yielded a self-cleavage of 0.14. For GGAAGAGCUAAACACAGCGUGGCAAAGUGGCUGUGGCUAGACCGGC [C3A C10A U43C C45G], the self-cleavage was 0.01. GGCAGAGCUCAACACAGCGUGGCAAAGUGGCUGUGGCUGGGAUGCC [A39G A41G C42A] showed a self-cleavage of 0.11. Variant GACAGAGCUCAACACAGCGUGGCAAAGUGGGUGUGGCUAAACUGCC [G2A C31G G40A] has a self-cleavage of 0.12. GGUAGAACUCAACACAGCGUGGCAACGUGACUGUGGCUAGACUGCC [C3U G7A A26C G30A] showed a self-cleavage of 0.17. For GGCAGAGCUCAAUACAGUGUGGCAAAGUGCAUGUGGCUAGACUGCC [C13U C18U G30C C31A], the self-cleavage was 0.21. GGCAGAGCUCGACACAGCGUGGCAAAGUGUCUGUGGCCAGACUGCC [A11G G30U U38C] gave a self-cleavage of 0.03. In the case of GGAAGAGUUCAACACUGCGUCGCAAAUUGGCUGUGGCUAGACUGCC [C3A C8U A16U G21C G27U], the self-cleavage is reported as 0.6. Variant GGCAGAGCUCAACACAGCGCGGCUAAGUGGCUCAGGCUAGCCUGCC [U20C A24U G33C U34A A41C] has a self-cleavage of 0.05. For GACAUAGCUCAACACAGCGUUGCAAAGUGGCUGUGGCUAGACUGCC [G2A G5U G21U], the self-cleavage was 0.1. Work on GGCAGAGCUCAACACAGGGUGGCAAGGUUGCUGUGGAUAGACUGCC [C18G A26G G29U C37A] yielded a self-cleavage of 0.51. Work on GGGAGAGCGCAACACAGCGUGACAAAGUGGCUGUGGCGAGACUGCC [C3G U9G G22A U38G] yielded a self-cleavage of 0.16. For GGCAGAGCCCAACACAGAGUGGCAAGGUGGCUGUGGCUAGACUGCC [U9C C18A A26G], the self-cleavage was 0.08. With GGCAGAGCUCAACACAGCGUGGCAAGAUGGCUGUGGCUAGACUGAC [A26G G27A C45A] the self-cleavage was 0.86. With GGCGGAGCUCAACACAGCGUGGCAAUGUGGCUGUAGCUAGACUGCC [A4G A26U G35A] the self-cleavage was 0.12. Work on GGCAGAGCUGAACACAGCGUGGCAAAGUGGGUGUGGGUAGACUGAC [C10G C31G C37G C45A] yielded a self-cleavage of 0. With GGCAGAGCUCAACACAGCGUUGCUAAGUGGCUGUUGCUAGACUGCC [G21U A24U G35U] the self-cleavage was 0.07. Variant GGCAGAGCUCAUCACAGCGUAGCAUAGUAGCUGUGGCUCGACUGCC [A12U G21A A25U G29A A39C] has a self-cleavage of 0.12. In the case of GGCAGAGCUCAACACAGCGUGGCAAAGGGACUGUGGCUAGACGUCC [U28G G30A U43G G44U], the self-cleavage is reported as 0.02. GGCAGAGCUCAACACAGCGGGGCACAGUGCCUAUUCCUAGACUGCC [U20G A25C G30C G33A G35U G36C] showed a self-cleavage of 0.16. Variant GGCACAGCUCAACACAGCGUGGCCAAAUGGCUGUGGCUAGACUGGU [G5C A24C G27A C45G C46U] has a self-cleavage of 0.07. For GGCAGAGCUCAAGUCAGCGUGCCUAAGUGGUUCUGGCUAGACUGCC [C13G A14U G22C A24U C31U G33C], the self-cleavage was 0.02. Variant GGCAGAGCUCAACACUGCGUUGCAAAGUGGCUGUGCCUAGACUGCC [A16U G21U G36C] has a self-cleavage of 0.03. GGCAGACCUCAACAGAGCGUGGCAAAGUGGCUGUGGCUAGCCGGCC [G7C C15G A41C U43G] gave a self-cleavage of 0.08. GGCAGAGCUCAAGACAGCGUGGCAAAGUGUGUGUGGCUAGACUGCC [C13G G30U C31G] showed a self-cleavage of 0.06. In the case of GGCAGAGCACAACACAGCGUGGCAAAGUGGCUGUGACUAGAUAGCC [U9A G36A C42U U43A], the self-cleavage is reported as 0.29. Work on AGCGGAGCUCAAUACCGCGUGGCAAAGUGGCUCUGGCUAGACUGCC [G1A A4G C13U A16C G33C] yielded a self-cleavage of 0.05. For GGCAGAGCUCAGCACAGCGUGGCAAAGUGGGUGUGGAUAGACUGCC [A12G C31G C37A], the self-cleavage was 0.03. For GGCUGAGCUCAACACAGCGUGGCAAAGUGGCUGUUGCUAGACUGCG [A4U G35U C46G], the self-cleavage was 0.05. Variant GGCAGAGCUCCACUCAGCGUGGCAAAGUGGUUGUGGCUAGACUGCC [A11C A14U C31U] has a self-cleavage of 0.01. GGCAUAGCUCACCACAGUGUAGCAAAGUGGCUGUGGCUAGACUCCC [G5U A12C C18U G21A G44C] showed a self-cleavage of 0.01. GUCAGAGCUCAACAAAGCGUGGCAAAGUGGCUGUGGAUAUACUGCC [G2U C15A C37A G40U] gave a self-cleavage of 0.01. GGCAGAGCUCAACACAGCGUGGCAAAGUGGCUGUGGCUUGAAGGAC [A39U C42A U43G C45A] showed a self-cleavage of 0.04. GGCAGAGGUCAUCACAGCGUGGCAAAUUGGCUGUGGCUAGACUGCC [C8G A12U G27U] showed a self-cleavage of 0.06. For GGCAGAAUUGAACACAGCGUUGCAAAGUGGCUGUGGCAAGACUGCC [G7A C8U C10G G21U U38A], the self-cleavage was 0.02. CGCAGAGCUCAACACAGCGUGGCAAAGUGGCAAUGGCUAGACUGUC [G1C U32A G33A C45U] gave a self-cleavage of 0.03. Work on GGCAGAGCUCAACACAGCGUGGCAAAGUGACUGUCACUAGACUGCC [G30A G35C G36A] yielded a self-cleavage of 0.06. In the case of UGCAGAACUCAACACAGCGUGGCAAAGUGGCAGUGGCUAGACUGCC [G1U G7A U32A], the self-cleavage is reported as 0.03. GGCGGAGCUCAACACAGCGUGGCAAAUUGGCGGUGGUUAGACUGCC [A4G G27U U32G C37U] showed a self-cleavage of 0.13. GGCAGAGCUCAACACAGCGUCGCAAAGUGACUGAGGCUAGACUGCC [G21C G30A U34A] gave a self-cleavage of 0.02. Variant GACAGAGCUCAACACAGCGUGGCAAAGUGGCUGUGACUUGACUGCC [G2A G36A A39U] has a self-cleavage of 0.36. Variant GACAGAGCACAACACAGCGUGGCAAAGUGGCUGUGGAUAGACUGCC [G2A U9A C37A] has a self-cleavage of 0.3. GGCAGAGUUCAACACAGCGCGGCAAAUUGGCUGUGGCUAGACUGCC [C8U U20C G27U] gave a self-cleavage of 0.05. With GGCAGAGCUCAACAGAGCGUGGCAAAGUGGCUGUGGCUGGACAGCC [C15G A39G U43A] the self-cleavage was 0. With CGCAGAGCUCAACACACCGUGGCAAAGUGGCUGUGGCUAGACUCCC [G1C G17C G44C] the self-cleavage was 0.08. With GGCAGAGCUAAACACCGCGUGGCCACGUGGCUGUGGCUAGACUGCC [C10A A16C A24C A26C] the self-cleavage was 0.01. In the case of GUCAGAUCUCAACACAGCAUGGCUAAGUGUCUUUGGCUAUAAUGCC [G2U G7U G19A A24U G30U G33U G40U C42A], the self-cleavage is reported as 0.05. For GGCAGAGCUCAACGCAGCGUGUCAAAGUGGCUGUGGCUAGACUGCG [A14G G22U C46G], the self-cleavage was 0.69.
